# ± gives the standard deviation of the averaged measurements. The list shows a part of the results.
# Tested on: PfAP2-G AP2 domain (GST-tagged)
# Assay: gcPBM binding intensity (ln(normalized median fluorescence intensity)); higher = stronger DNA binding
# Method in brief: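 The highest Masliner-normalised natural-log median intensity across replicate spots of either probe orientation is reported as binding intensity. GST-tagged P. falciparum DNA-binding domains expressed in E. coli were applied for 1 h to an Agilent 4 × 180k array of primer-extended double-stranded 36-bp intergenic genomic probes plus negative controls, and bound protein was detected with Alexa488 anti-GST antibody and scanned at 488 nm.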
row,Sequence,gcPBM binding intensity (ln)
1,TTTTATTCATCATATTGTACATTCTTGTATTTATAG [XGTACX_site8534],11 ± 0.48
2,CTTTTGCCCAAAAAGGTACACACCACAAAGTACATA [CACACA_site8169],11.9 ± 1.2
3,TATTTATAATTAAATACACACATATATTATAGATTT [CACACA_site6435],9.75 ± 0.18
4,TTGTATATACTATACACACACATACATACATACATA [CACACA_site814],10.2 ± 0.18
5,ATATACTTACATATTACACACAATATTTTTAAATGG [CACACA_site5916],10.04 ± 0.078
6,GAGATATAAAAGTGTACACATATTGTTATCCATATT [CACACA_site5441],11.8 ± 1
7,ACCCATATTCTTTTTACACACTTGAATAAAAAATAT [CACACA_site4797],10.2 ± 0.3
8,CACACTTTATAATGTTGTACGATACATTATACCAAA [XGTACX_site941],11.1 ± 0.54
9,ATCTCAAATATAATAAATTATTAGGTATATATATAT [CACACA_negctrl_site1828],9.96 ± 0.28
10,TATATATATATATATACATGCATACAATTTTATGAG [TGCATGCA_site466],10.2 ± 0.65
11,AATAAAAAATAAAAAAGTACATGATGAAAAGGTTTA [XGTACX_site7615],11.4 ± 0.8
12,TCCCTGATGTTATTTAATATACCATAAAAAAAAAAA [CACACA_negctrl_site1472],10.1 ± 0.45
13,TATATATATACAGTAGTGCATATATTTAAAATATAT [GTGCAC_site9999],10.2 ± 0.2
14,TATATATAAAAATATACACACTGTATTATTGTAATA [CACACA_site5959],9.79 ± 0.014
15,ATATATAAAAATAAATGTACATATTCATATGATGAT [XGTACX_site3411],11.2 ± 0.57
16,TTTTAAAAAAAAAAAAAATAAGATAAAATTAAATAA [GTGCAC_negctrl_site367],9.34 ± 0.26
17,ATAAAAAATATCACATAAAATAAAAAAAGAAAGGAT [XGTACX_negctrl_site294],9.995 ± 0.035
18,ATATAAGTATATCTATGTACATACAATATAAATGTA [XGTACX_site2153],11.2 ± 0.77
19,TATATACATACATATTGTACTTATAAAGATTAATTT [XGTACX_site2203],11 ± 0.61
20,TTATTATTATTACTTACGCACACTTTTTTTTTTATT [CACACA_site411],10.27 ± 0.028
21,ATCAAAAGAAGACACACACACATACCTATAAATATA [CACACA_site7736],10.1 ± 0.13
22,AATAGTTATTCCAGGTGTACATAACATATAATTTAC [XGTACX_site1340],11.5 ± 0.95
23,GACAATTATATGTAGGTGCATATACAAATTTTTTAA,10.1 ± 0.25
24,ATAGGATATTATTCCTGTACATATATATATATATAT [XGTACX_site2108],10.9 ± 0.64
25,AATCTTCTTAATTGTAGTACACAATTTATAAACAAA [XGTACX_site8706],11.6 ± 1

# Reference: the supplement of paper PMC11417369
